Hit rate of the full screen: of about 55,000 compounds, about 530 (0.96%) were called active. Inconclusive means that the source gave no clear call. Such entries were picked first, then a sample of the others. Calls follow the shape of the dose curve; as a rule, active = well fitted cell-killing curve with a large enough effect; inconclusive = small, poorly fitted or top-dose-only effect; inactive = no such curve, though single readings can be large or run the other way. Potencies beside an inconclusive call are fits to weak or partial responses and may not hold up.
Assay: qHTS Screen for Compounds that Selectively Target Cancer Cells with p53 Mutations: Cytotoxicity of p53 Null Cells at the Nonpermissive Temperature; also: nearly all actives have a fitted effect of over 50% in size
Conditions: H1299 p53-null (neo) cells, 39C, ATPlite viability, 24 h; series mostly up to 46.1 µM
In short: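 Concentration-response (up to 46 uM) was run for 24 h at the nonpermissive 39C on H1299-p53A138V or H1299-neo cells. ATP content was measured with ATPlite luminescence. AC50 values were Hill-modeled after normalizing between DMSO and 100 uM tamoxifen killing.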
In the case of O=C(CSc1nc2ccsc2c(=O)n1-c1ccc(Cl)cc1)NCc1ccc(Cl)cc1, the Potency is reported as “inactive”.
With Cc1ccc(C)c(NC(=O)CSc2nnc3[nH]c(=O)cc(-c4ccccc4)n23)c1 the Potency was inconclusive: 0.447 µM [cytotoxic, full curve].
In the case of COC(=O)CCCn1c(-c2ccc(C)cc2)c(C)n2c3c(=O)n(C)c(=O)n(C)c3nc12, the Potency is reported as inconclusive: 0.0126 µM [cytotoxic, full curve].
For CCc1cccc(NC(=O)Cc2nc(-c3ccc(OC)cc3)no2)c1, the Potency was inconclusive: 31.6 µM [cytotoxic, single point].
For CCc1ccc(NC(=O)c2cccc(N3CCCS3(=O)=O)c2)cc1, the Potency was inconclusive: 10 µM [cytotoxic, partial curve].
With CCCCCCNC(=O)CCc1c(C)nc2nc(-c3cc(OC)cc(OC)c3)nn2c1C the Potency was “inactive”.
For COc1ccc(OC)c(NC(=O)CSc2c3c(nc4cc(Cl)ccc24)CCCC3)c1, the Potency was “inactive”.
In the case of Cc1ccccc1Cn1c(-c2cccs2)nc2ccccc21, the Potency is reported as inconclusive: 22.4 µM [cytotoxic, partial curve, poor fit].
With Cc1ccc(-n2c(SCC(=O)N3CCc4ccccc43)nc3c([nH]c4ccccc43)c2=O)cc1 the Potency was “inactive”.
With COc1ccc(-n2c(=O)[nH]c3cc(C(=O)NCCc4ccc(Cl)cc4)ccc3c2=O)cc1OC the Potency was inconclusive: 0.02 µM [cytotoxic, full curve].
In the case of Cc1ccc(OCC(=O)Nc2ccc3c(c2)sc(=O)n3C)cc1, the Potency is reported as inconclusive: 12.6 µM [cytotoxic, single point].
With CCOC(=O)C1CCN(c2cc(C)nc3c(-c4ccccc4OC)c(C)nn23)CC1 the Potency was inconclusive: 4.47 µM [cytotoxic, single point].
In the case of CCc1ccc(CNC(=O)C2CCN(c3nnc(C)c4c(C)n(-c5ccc(C)cc5)nc34)CC2)cc1, the Potency is reported as inconclusive: 15.8 µM [cytotoxic, partial curve].
For O=C(Nc1nc2n(n1)C(c1ccccc1)C=C(c1ccc(Cl)cc1)N2)c1ccco1 (stereo not given), the Potency was “inactive”.
With COc1ccc(C)cc1NC(=O)C(Cc1ccccc1)NS(=O)(=O)c1ccc(Br)s1 (stereo not given) the Potency was inconclusive: 22.4 µM [cytotoxic, single point].
For Cc1ccc(Cl)cc1NC(=O)CCc1c(C)nc2c3cccnc3nn2c1C, the Potency was inconclusive: 5.62 µM [cytotoxic, single point].
In the case of Cc1ccccc1CNC(=O)c1ccc2nc(C(C)C)oc2c1, the Potency is reported as inconclusive: 5.01 µM [cytotoxic, full curve].
For CCc1ccc(NC(=O)C2C3C=CC(C4CC34)C2C(=O)O)cc1 (stereo not given), the Potency was inconclusive: 11.2 µM [cytotoxic, partial curve].
For O=C(NCCc1csc(-c2ccc(F)cc2)n1)c1cccc(F)c1, the Potency was “inactive”.
In the case of CC1CCCN(CCCNC(=O)c2cc3c(Cl)nc4ccccc4c3s2)C1 (stereo not given), the Potency is reported as “inactive”.
With O=C(NCc1cccs1)c1ccc(CSc2nc3ccncc3n2Cc2ccccc2F)cc1 the Potency was inconclusive: 31.6 µM [cytotoxic, single point].
In the case of Cc1ccc(SCC(=O)Nc2ccc3oc(-c4ccccc4F)nc3c2)cc1, the Potency is reported as inconclusive: 11.2 µM [cytotoxic, single point].
For Cc1cc(Br)cc2c1N(Cc1ccccc1OC(C)C)C(=O)C2=O, the Potency was inconclusive: 25.1 µM [cytotoxic, partial curve, poor fit].
In the case of CC1CCc2onc(C(=O)N3CCN(c4cccc(Cl)c4)CC3)c2C1 (stereo not given), the Potency is reported as “inactive”.
In the case of CCn1c2ccccc2c2cc(NC(=O)COc3cc(C)ccc3C)ccc21, the Potency is reported as inconclusive: 12.6 µM [cytotoxic, partial curve].
For CCOc1ccc(CNC(=O)c2ccc3c(c2)nc2n3CCCCC2)cc1, the Potency was inconclusive: 0.02 µM [cytotoxic, full curve, poor fit].
For COc1ccc(N2CC(NC(=O)C(=O)c3c(C)[nH]c4ccccc34)CC2=O)cc1 (stereo not given), the Potency was inconclusive: 1.78 µM [cytotoxic, full curve, poor fit].
In the case of CC(C)c1ccc(NC(=O)c2cnc3sc(N4CCOCC4)nn3c2=O)cc1, the Potency is reported as inconclusive: 3.98 µM [cytotoxic, full curve].
With Cc1cc(C)cc(NC(=O)COCc2cc(-c3ccc4c(c3)OCO4)on2)c1 the Potency was “inactive”.
With Cc1cc2c(cc1S(=O)(=O)NCc1ccccc1Cl)OCC(=O)N2 the Potency was inconclusive: 3.16 µM [cytotoxic, partial curve].
In the case of Cc1ccc(C)c(-n2nnc(C(=O)Nc3ccc(Br)cc3)c2C)c1, the Potency is reported as “inactive”.
For Fc1ccc(Nc2c(-c3ccccn3)nc3ccc(Cl)cn23)cc1, the Potency was inconclusive: 12.6 µM [cytotoxic, partial curve].
With O=C(Nc1nnc(S(=O)(=O)N2CCCCC2)s1)c1ccc(F)cc1 the Potency was “inactive”.
In the case of COc1ccc(NC(=O)COc2ccc(S(=O)(=O)NC3CCCCC3)cc2)c(OC)c1, the Potency is reported as inconclusive: 0.0794 µM [cytotoxic, partial curve].
For O=C(CCCc1nc(-c2ccccc2)no1)Nc1cc(C(F)(F)F)cc(C(F)(F)F)c1, the Potency was inconclusive: 20 µM [cytotoxic, single point].
For Cc1n[nH]c(C)c1CCc1nc2c3ccccc3nc(SCC(=O)Nc3ccc(F)cc3)n2n1, the Potency was inconclusive: 11.2 µM [cytotoxic, single point].
With O=C(Oc1ccccc1Cl)c1cc(-c2ccc3c(c2)OCCO3)on1 the Potency was inconclusive: 31.6 µM [cytotoxic, single point].
With CCN1CCN(c2cc(C)c3cc(NC(=O)c4cccc(Cl)c4)ccc3n2)CC1 the Potency was active: 22.4 µM.
In the case of CCCC(=O)C1=C(c2ccc(C)cc2)N(C(=O)CCC)n2cnnc2S1, the Potency is reported as inconclusive: 25.1 µM [cytotoxic, partial curve, poor fit].
In the case of Cc1oc(-c2ccc(C(=O)Nc3cccc(C(F)(F)F)c3)cc2)nc1CSc1ccccc1, the Potency is reported as inconclusive: 2.24 µM [cytotoxic, partial curve].
With CCCCCn1c(CCCNC(=O)c2cccc(C)c2)nc2ccccc21 the Potency was inconclusive: 25.1 µM [cytotoxic, single point].
For O=C(c1cc(C2CC2)nc2ccc(Br)cc12)N1N=C(C(F)F)CC1(O)C(F)F (stereo not given), the Potency was inconclusive: 10 µM [cytotoxic, partial curve].
For Cc1nn2c(=O)cc(COC(=O)c3ccc(NC(=O)COc4ccc(Cl)cc4)cc3)nc2s1, the Potency was inconclusive: 35.5 µM [cytotoxic, single point].
With CCN(CCCNC(=O)c1cc2c(=O)n(CC)c3ccccc3c2s1)Cc1ccccc1 the Potency was inconclusive: 14.1 µM [cytotoxic, single point].
With COc1cc2nc(NC(=O)c3ccc(S(=O)(=O)N4CCc5ccccc54)cc3)sc2cc1OC the Potency was “inactive”.
In the case of O=C(CSc1ncc(-c2ccccc2)[nH]1)Nc1cccc(Br)c1, the Potency is reported as inconclusive: 20 µM [cytotoxic, single point].
With Cc1cc(OCC(=O)N2CCC(c3nc4ccccc4s3)CC2)ccc1Cl the Potency was inconclusive: 22.4 µM [cytotoxic, single point].
With Cc1ccc2nc(-c3cccs3)c(Nc3ccc4c(c3)OCCO4)n2c1 the Potency was inconclusive: 22.4 µM [cytotoxic, partial curve, poor fit].
In the case of CC(=O)N1CCc2c(sc3c2c(=O)n(-c2ccccc2Cl)c(=O)n3Cc2cccc(C)c2)C1, the Potency is reported as “inactive”.
With CCOC(=O)N1CCN(Cc2nc3cc(NC(=O)c4ccccc4Cl)ccc3n2C(C)C)CC1 the Potency was inconclusive: 1.41 µM [cytotoxic, full curve].
For CCC(CC)C(=O)Oc1c(Sc2ccccc2[N+](=O)[O-])c(C)nn1C(C)(C)C, the Potency was “inactive”.
In the case of N/C(=N\OC(=O)c1ccccc1Cl)c1cccnc1, the Potency is reported as inconclusive: 10 µM [cytotoxic, single point].
In the case of Cc1c(C(=O)NCc2ccccc2)sc2nc[nH]c(=O)c12, the Potency is reported as “inactive”.
In the case of COc1cc(-c2noc(-c3ccc(N(C)C)c([N+](=O)[O-])c3)n2)cc(OC)c1OC, the Potency is reported as inconclusive: 22.4 µM [cytotoxic, single point].
With CCc1ccc(NS(=O)(=O)c2ccc3[nH]cc(C(=O)NCc4ccc(C)cc4)c(=O)c3c2)cc1 the Potency was inconclusive: 15.8 µM [cytotoxic, single point].
In the case of COc1ccc(N2CCN(C(=O)c3ccc4c(=O)n(CCc5ccc(OC)c(OC)c5)c(=O)[nH]c4c3)CC2)cc1, the Potency is reported as “inactive”.
With Cc1cc(C(F)F)n2nc(C(=O)Nc3ccc(C(C)C)cc3)nc2n1 the Potency was inconclusive: 31.6 µM [cytotoxic, single point].
With CCC1CN(C(=O)Nc2cccc3c2CCCC3)c2cc(Cl)ccc2O1 (stereo not given) the Potency was inconclusive: 0.0794 µM [cytotoxic, full curve, poor fit].
For COC(=O)c1sc2ncccc2c1-n1c(C)ccc1C, the Potency was inconclusive: 0.794 µM [cytotoxic, full curve, poor fit].
In the case of CC(C)C(=O)N1c2nc(-c3ccco3)nn2C2(CCCCC2)[C@@H]2CCCC[C@@H]21, the Potency is reported as “inactive”.
For CSc1cccc(Nc2cc(C(=O)NCCc3ccc(Cl)cc3)c3ccccc3n2)c1, the Potency was inconclusive: 2 µM [cytotoxic, full curve, poor fit].
For COc1cccc(N2CCN(C(=O)CCCn3c(=O)[nH]c4ccc(Br)cc4c3=O)CC2)c1, the Potency was inconclusive: 35.5 µM [cytotoxic, single point].
In the case of COc1ccc(OC)c(CNS(=O)(=O)c2ccc3[nH]c4c(c3c2)CCCCC4)c1, the Potency is reported as “inactive”.
With CC(C)NC(=O)c1ccc(-n2c(-c3ccccc3)cc3c2CCCC3)cc1 the Potency was “inactive”.
For O=C(COc1ccc(Br)cc1Cl)Nc1ncn[nH]1, the Potency was inconclusive: 1.58 µM [cytotoxic, full curve].
Potency is read from the fitted curve at half-maximal effect; tags tell the direction and shape of the fitted curve.
